Measured values reported in the supplement of paper PMC11383711.
Some of the results follow. Binding of human antibodies (heavy:light variable regions, tested as scFv in one mRNA-display pool) to influenza hemagglutinin, with or without the stem antibody CR9114 bound first. Score = (mean enrichment − median) / interquartile range of that screen; higher = more enriched, 0 = typical non-binder. Active = above the paper's cut-off per screen: stems 28; unblocked H1 Solomon Islands 5, H1 Michigan 3, H3 5, H5 19, H7 2.85, both B 5; blocked 9, 7, H5 10, H7 10, B Phuket 10, B Lee 11.5. Scores are scaled within each screen and are no affinities; replicates correlate at about 0.6 to 0.9, and antibodies rare in the pool are noisier.

Key:
[1] = target: H1 HA stem construct (mini-HA #4900); test: mRNA display binding score; higher = more enriched on the antigen; details: antigen blocked with: nothing
Description: (§1)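 A pool of natively paired antibodies, displayed as scFv on mRNA, was selected once on antigen-coated beads and sequenced before and after; two replicates.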

[2] = target: H3 HA stem construct (H3ssF); test: as above; details: antigen blocked with: nothing
Description: as §1

B1: K77-2F08 (protein)
chain 1: EVQLVESGEGVVHPGTSLRLSCAASGFTFGSYGLHWVRQAPGKGLEWVAFISYDGGEKSYADSLKGRFAISRDKSKNVLYLEMNTLRAEDTALYSCARTWNSYFFDQWGQGTLVTVSS
chain 2: QSALTQPASVSGSPGQSITISCTGTGSDVGIYNLVSWYQHHPGKAPKFMIYEVSERPSGVSSRFSGSKSGNTASLTISGLQAEDEANYYCCSYAGSNTWVFGGGTKLTVL
- mRNA display binding score [1]: inactive: 0.192
- mRNA display binding score [2]: inactive: -0.134

B2: antibody 1G03 (protein)
chain 1: EVQLVETGGGLIQPGGSLRLSCAASGFIVSSNYMSWVRQAPGKGLEWVSVIYGGSSTYYADSVKGRFIISRDNSKSTLYLQMNSLRAEDTAVYYCARGPADIVAAGTYPYYYYAMDVWGQGTTVTVSS
chain 2: DIQMTQSPDSLAVSLGERATINCKSSQSVLYSSNNKNYLAWYQQKPGQPPKLLIYWASTRESGVPDRFSGSGSGTNFTLTIRSLQAEDVAVYYCQQYYITPYTFGQGTKVEIK
- mRNA display binding score [1]: inactive: -0.507
- mRNA display binding score [2]: inactive: 0.312

B3: C1-B01 (protein)
chain 1: VQLVESGGGLVQPGGSLRLSCAASGFPFATYSMNWVRQAPGKGLEWLSYISSSSATVFYADSVKGRLTISRDNAKNSLYLQMYSLRAEDTAVYYCAREEVVVAGTPFDSWGQGALVTVSS
chain 2: EIVMTQSPATLSVSPGERATLSCRASQSVGSRLAWYQQKPGQPPRLLLYDASTRATDIPARFSGTGYGTEFTLTISSIQSEDFAVYHCHQYSGWPPWTFGQGTKVEIK
- mRNA display binding score [1]: inactive: 0.179
- mRNA display binding score [2]: inactive: 0.644

B4: W85-2F03 (protein)
chain 1: EVQLVESGGGLVQPGRSLRLSCTTSEFTFDEYTMSWVRQAPGKGLEWVGFIGSKAYRGTTEYAASVKGRFTISRDDFRSIAYLQMNSLKTEDTAVYYCTRDSGFGDYFDYWGQGTLVTVSS
chain 2: QSALTQPASVSGSPGQSITISCTGTSGDIGGYNYVSWYQQHPGKAPKLMIYDVSNRPSGVSNRFSASQSGKTASLTISGLQAEDEADYYCFSFTSTSTWVFGGGTKLTVL
- mRNA display binding score [1]: inactive: -0.28
- mRNA display binding score [2]: inactive: 0.564

B5: K77-2A09 (protein)
chain 1: EVQVVESGGTVVQPGGSLTLSCTTSGFTFDNFAMHWVRQAPGKGLEWVALVGWDSAVIYYADSVQGRFNISRDNSKNSLYLQMNSLRAEDTALYYCAKDDDPGNYGYFHYSLDVWGQGTAVTVTS
chain 2: DVVMTQSPLSLPVTLGQPASISCRSSQSLVDSYGDTYLNWFQQRPGQSPRRLIYKVSNRDSGVPDRFSGSGSGTDFTLKISRVEADDVGVYYCMQGTHWPLTFGGGTKVEI
- mRNA display binding score [1]: inactive: -0.336
- mRNA display binding score [2]: inactive: 2.23

B6: R95-2H06 (protein)
chain 1: EVQLVESGGVVQQPGGALRLSCAASGLTFDEYAMHWVRQAPGKGLEWVSLITWDGGTTYYADSVKGRFTISRDNSKNSLYLQMNSLRPEDSGLYYCAKDPYGSGSAGWFDPWGQGTLVTVSP
chain 2: DIQMTQSPSSLSASVGDRVNITCRASQSIIFYLNWYQQRPGKAPKLLIYHASILQSGVPSRFTGSGSGTDFTLTISSLQPEDLATYYCQQSYSIPLTFGGGTKVEIK
- mRNA display binding score [1]: inactive: -0.0485
- mRNA display binding score [2]: inactive: -0.179

B7: R95-2E12 (protein)
chain 1: QVQLQESGPGLVKPSETLSLTCVVSDGSISSSTYYWGWIRQPPGKGLEWIGSIYYSGDTYYNPSLKSRVITSVDTSKNQFSLKLSSVTAADTAVYYCARHGPWQLSYFDYWGQGTLVTVSS
chain 2: QSALTQPRSVSGSPGQSVTISCTGTGSRVGGYHYVSWYQQHPGKAPKLMIYEVNKRPSGVPDRFSGSQSGNTASLTISGLQAEDEADYYCCSYAGSFLLFGGGTKLSV
- mRNA display binding score [1]: inactive: -0.909
- mRNA display binding score [2]: inactive: -0.701

B8: 56.d.01 (protein)
chain 1: EVQLVESGGGLVQPGGSLRLSCSASGFTVSNYAMHWVRQAPGKGLEYVSAISVNGFSTFYTDSVKGRFTISKDNSKNTLYLQMSSLRPEDTAVYYCVKAESYDFWSGYDWGQGTQVTVSS
chain 2: EIVLTQSPGTLSLSPGERATLSCRASQSVSSSSLAWYQQKPGQAPRLLIFGASSRATGIPDRFSGSGSGTDFTLTISRLEPEDFAVYYCQQYGSLGTFGGGTKVEIK
- mRNA display binding score [1]: inactive: 0.429
- mRNA display binding score [2]: inactive: 0.268

B9: K77-1C12 (protein)
chain 1: EVQLVESGGGVVQPGGSLRLSCAASGFTFSNYGMHWVRQAPGKGLEWVAFIRYDGSNEYYGDSAKGRFTISRDNSKNTLYLQLISLRPDDTAVYYCANEPDPQSGGLRNDGVVHHDHWGQGTLVTVSS
chain 2: QSALTQPVSVSGSPGQSITISCTGTSFDVGGYHYVSWYQQYPGKAPKLMIYDVSKRPSGVSNRFSGSKSGITASLTISGLQAEDEADYHCGSYTSSYTWVFGGGTKLTVL
- mRNA display binding score [1]: inactive: -1.21
- mRNA display binding score [2]: inactive: -0.24

B10: antibody 4D06 (protein)
chain 1: VQLVESGGGVVQPGTSLRLSCVASEFTFSSSGMHWVRQAPGKGLEWVAIISYDGRKKYYVDSVEGRFTISRDNSKNTLYLQMNSLRVEDTAIYYCAKASTVTKRYNWFDPWGQGTLVTVSS
chain 2: DIQMTQSPSSLSASVGDRVTITCRASESISSYLNWYQQRPGKAPKLLIYAASSLQTGVPSRFSGSGSGTDYTLTISSLQPEDFATYFCQQSYSTPLTFGPGTKVDIK
- mRNA display binding score [1]: inactive: 1.99
- mRNA display binding score [2]: inactive: 7.88

B11: AG2-B02 (protein)
chain 1: VQLVQSGAEVKKPGESLKISCRASGYNFDRHWIGWVRQTPGKGLEWMAIIYPHDSGHRYSPAFEGQVAISADKSTSTAYLQWSSLKASDTATYYCAKLPSKYYYDNSGPFDVWGQGTLVTVSS
chain 2: AIQLTQSPSSLSASVGDRVTITCRASESVITALAWYQQRPGRAPRLLISDASTLQNGVPSRFSGSGSGTDFALTITSLQPEDFATYYCQQYETGPTFGQGTRLEIK
- mRNA display binding score [1]: inactive: -0.65
- mRNA display binding score [2]: inactive: 0.538

B12: 051-09-4C02 (protein)
chain 1: QVQLVESGGGLVTPGGSLRLSCVASGFSFGDFYMGWIRQAPGKGLQWLSHISPSGGTIYYSDSVKGRFSISRDNAKNSVHLEMNSLRADDTAVYYCARAGVAVLTFDNRGWRFFDPWGQGTLVTVSS
chain 2: EIVLTQSPATLSLSPGERATLSCRASQSINDYLAWYQQKPGQAPRLVIHDASNRATGIPARFSGSGSETDFTLTISSLEPEDFAVYYCQQRSNWPPGVTFGQGTRLEIK
- mRNA display binding score [1]: inactive: -1.28
- mRNA display binding score [2]: inactive: 0.294

B13: C1-C02 (protein)
chain 1: VQLVESGGGLVKPGGSLRISCAASGFSFSNAWMNWVRQAPGRGLEWVGRIKSKTDGGITDYGAPVKGRFSISRDDSKKTLYLQMNSLKTEDTAVYYCATGGGSASGMYYYNGLDVWGQGTTVTVSS
chain 2: DIVMTQTPLSLSVTPGQPASISCKSSQTLLHGDEKTYLYWYLQKPGQSPQILIYEVSNRFPDVPDRFSGSGSGTDFTLKISRVEAEDVGVYYCMQSIQLPYTFGQGTKVEIK
- mRNA display binding score [1]: inactive: -0.769
- mRNA display binding score [2]: inactive: 0.00238

B14: antibody 3D03 (protein)
chain 1: EVQLVQSEAEVKKPGESLKISCKGSGYSFANYWIAWVRQMPGQDLEWMGVIYPGDSDTKYSPSFQGQVTISADKSISTAYLQWNSLKASDTAMYYCARAPPHEGRYYYYYYYMDVWGKGTTVTVSS
chain 2: AIRMTQSPSSLSASVGDRVTITCRASQDINSFLAWYQQKPGQAPKVLLYGASRLQSGVPSRFSGSGSGADYTLTISSLQPEDFATYYCQQYYHIPRFGQGTKVEIK
- mRNA display binding score [1]: inactive: 0.892
- mRNA display binding score [2]: inactive: 2.55

B15: W85-2B03 (protein)
chain 1: QVQLVESGGGVVHPGRSLRLSCAASGFDFSDYAMHWVRQAPGKGLEWVALISSDGGNKYSADSMEGRFTISRDNYKNTVYLQMNRLRAEDTAVYYCATDFCSSSSCYLEYWGQGTLVTVSS
chain 2: QSALTQPASVSGSPGQSITISCTGTSTDVGGYNYVSWYQQHPGKAPKLMIYEVNNRPSGISDRFSASKSGNTASLTISGLQAEDEADYYCSSYTRRSTWVFGGGTKVAVL
- mRNA display binding score [1]: inactive: -0.923
- mRNA display binding score [2]: inactive: -0.376

B16: AG3-D06 (protein)
chain 1: QLQLQESGPGLVKPSETLSLTCSVSGGSISETIYYWGWIRQPPGKGLEWIGTIYSDGNTYYNPSLKSRVNMFVDTSDNQFSLKMKSLSAADTAVYYCARLRDGYKYYYGMDVWGQGTTVTVSS
chain 2: DIQMTQSPSSLSASVGDRVTIPCRASQTISTYLNWYQQRPGKAPKLLIYSASILERGVPSRFSGSGSGTDFTLTISSLQPEDFATYYCQWGSAISVTFGQGTKLEIK
- mRNA display binding score [1]: inactive: 0.653
- mRNA display binding score [2]: inactive: 0.291

B17: C05 (protein)
chain 1: QVQLQESGGGLVQPGESLRLSCVGSGSSFGESTLSYYAVSWVRQAPGKGLEWLSIINAGGGDIDYADSVEGRFTISRDNSKETLYLQMTNLRVEDTGVYYCAKHMSMQQVVSAGWERADLVGDAFDVWGQGTLVTVS
chain 2: DIQLTQSPSSLSASVGDRVTLTCQASQDIRKFLNWYQQKPGKGPKLLIYDASNLQRGVPSRFSGVDLGQISLSSSVACSLKDVGTYYCQQYDGLPFTFGGGTKLEIK
- mRNA display binding score [1]: inactive: 0.776
- mRNA display binding score [2]: inactive: 1.14

B18: AG10-3C01 (protein)
chain 1: VQLLESGGDLIQPGGSLRLSCAASGFAFGRYAMGWVRQAPGKGLEWVSSISGGFGVFGVTYYADSVKGRFTISRDNSKNTLYLQMNSLRAEDTAIYYCVKDFTPPGTWGWRPGYCDYWGQGTLVTVSS
chain 2: EIVLTQSPGTLSLSPGERATLSCRASQSVTSNSLAWYQQRPGQAPRLLIYGASSRATGIPDRFSGSGSGTDFTLTITRMDPEDFAVYHCHHYGSSTGTFGQGTKVEIK
- mRNA display binding score [1]: inactive: 0.621
- mRNA display binding score [2]: inactive: 3.86

B19: 01.e.01 (protein)
chain 1: QVRLVESGGGVVQPGRSLRLSCAASAFTFSSYALHWVRQAPGKGLEWVTVISSNGRNKYYADSVKGRFTISRDNSKNTLYLQMNSLRVEDTAVYYCARGSSGYTYGYIDPLSNYYGMDVWGQGTTVTVSS
chain 2: DIVMTPRSVSLSVTPGEPASISCRSSQSLLHSNGYNYLDWYVQKPGQSPQLLIYLSSNRASGVPDRFSGSGSGTDFTLEISRVEAEDVAVYYCMQARQTPPTFGQGTKVEIK
- mRNA display binding score [1]: inactive: -0.191
- mRNA display binding score [2]: inactive: 0.12
